{
  "source": "PubChem BioAssay AID624171",
  "about": "(National Center for Advancing Translational Sciences (NCATS), 2012)",
  "note": "Out of some 410,000 compounds screened, about 1,200 (0.29%) were called active. This list was built around the results that the source calls inconclusive (neither active nor inactive); the mix of calls is not that of the screen. The call rests on the fitted dose curve; in most records, active means well fitted activation curve with a large enough effect; inconclusive means small, poorly fitted or top-dose-only effect; inactive means flat fitted curve, though single readings scatter. Where the call is inconclusive, the potency comes from a doubtful curve fit. Potency means the concentration at half of the fitted maximal effect; tags describe the fitted curve by direction and shape.",
  "data": [
    {"assay": "qHTS of Nrf2 Activators; further: nearly all actives have a fitted effect of over 65% in size", "conditions": "AREc32 ARE-luciferase reporter (MCF7-derived line), luminescence, 24 h; series mostly up to 46.1 µM", "how_it_was_run": "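AREc32 cells carrying an ARE-driven firefly luciferase, 1000 cells/well in OPTI-MEM with 5% FBS, dosed after overnight attachment and incubated 24 hr at 37 deg C. Steady-Glo luminescence read after 30 min at RT.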", "values": [
      {"compound": "COC(=O)c1ccccc1NC(=O)C1(c2cccs2)CCOCC1", "Potency": "inactive"},
      {"compound": "Cc1ccc(/C=C/C(=O)OCC(=O)NCc2cccs2)o1", "Potency": "inconclusive: 15.8 µM [activator, partial curve, poor fit]"},
      {"compound": "S=c1[nH]nc(-c2ccco2)n1/N=C/C=C/c1ccco1", "Potency": "inconclusive: 12.6 µM [activator, partial curve, poor fit]"},
      {"compound": "O=C(N/N=C/c1c(O)ccc2ccccc12)Nc1ccccc1", "Potency": "inconclusive: 10 µM [activator, partial curve, poor fit]"},
      {"compound": "CCn1c(SCC(=O)Nc2cccc(OC)c2)nc2ccccc2c1=O", "Potency": "inactive"},
      {"compound": "O=C(CSc1nc2ccccc2s1)N/N=C/c1ccc(C(=O)O)cc1", "Potency": "inactive"},
      {"compound": "COC(=O)c1sc(NC(=O)c2ccc([N+](=O)[O-])o2)c(C#N)c1C", "Potency": "inconclusive: 3.55 µM [activator, partial curve, poor fit]"},
      {"compound": "COC(=O)C(=C/C(C)=C/c1cccs1)C(=O)OC", "Potency": "active: 14.1 µM"},
      {"compound": "COc1cccc(/C=C2\\SC(=S)N(CCC(=O)NC3C=CS(=O)(=O)C3)C2=O)c1", "note": "(stereo not given)", "Potency": "inconclusive: 5.62 µM [activator, full curve]"},
      {"compound": "CCN(CC)CCNC(=O)C(Cl)=C1C(Cl)=C(Cl)C(Cl)=C1Cl", "Potency": "inconclusive: 3.16 µM [activator, full curve, poor fit]"},
      {"compound": "CCOc1ccc(CNS(=O)(=O)c2c(C(=O)N3CCC(C)CC3)c(C)n(C)c2C)cc1OC", "Potency": "inactive"},
      {"compound": "COC(=O)c1c(NC(=O)c2ccco2)sc(C(=O)N(C)C)c1C", "Potency": "active: 12.6 µM"},
      {"compound": "CC1(C)C(=O)OC(/C=C/c2cccc([N+](=O)[O-])c2)C(C)(C)C1=O", "note": "(stereo not given)", "Potency": "inconclusive: 3.98 µM [activator, partial curve, poor fit]"},
      {"compound": "Cc1ccc(OCC(=O)N/N=C/C=C/c2ccco2)c(Br)c1", "Potency": "inactive"},
      {"compound": "COc1ccc(Cl)cc1NC(=O)CCS(=O)(=O)c1nc(-c2cccs2)cc(C(F)(F)F)n1", "Potency": "inconclusive: 5.62 µM [activator, single point]"},
      {"compound": "O=C(/C=C/c1ccco1)NCC1(c2ccccc2)CCCC1", "Potency": "inconclusive: 14.1 µM [activator, partial curve, poor fit]"},
      {"compound": "CCS(=O)(=O)N1CCN(C(C)CCc2ccccc2)CC1", "note": "(stereo not given)", "Potency": "inactive"},
      {"compound": "CCc1cccc(NC(=O)C2CCN(C(=O)c3cnn(-c4ccccc4)c3-n3cccc3)CC2)c1", "Potency": "inactive"},
      {"compound": "Cc1cc(C(=O)NNc2c(Cl)cccc2Cl)no1", "Potency": "inactive"},
      {"compound": "Cc1cccc(/C=C(\\c2nc3ccccc3[nH]2)S(=O)(=O)c2ccccc2)c1", "Potency": "inconclusive: 3.98 µM [activator, single point]"}
    ]}
  ]
}
